# Source: the supplement of paper PMC12217912
# Some of the results follow. The full chains were built here from the parent and the listed change. Inactive controls read about 0.05.
# B1: TEV protease; numbered along this chain (parent)
# chain: MGESLFKGPRDYNPISSSICHLTNESDGHTTSLYGIGFGPFIITNKHLFRRNNGTLVVQSLHGVFKVKDTTTLQQHLVDGRDMIIIRMPKDFPPFPQKLKFREPQREERICLVTTNFQTKSMSSMVSDTSCTFPSGDGIFWKHWIQTKDGQCGSPLVSTRDGFIVGIHSASNFTNTNNYFTSVPKNFMELLTNQEAQQWVSGWRLNADSVLWGGHKVFMVKPEEPFQPVKEATQL
# Variants of: B1
# Assay: raw area under fraction-flipped curve 0-4 h after induction (AUC4h, not background-subtracted), DNA-recorder readout of cleavage of the substrate (dimensionless); higher = more cleavage of the substrate by the protease variant
# Details: temperature: 34 °C; time window: 0-4 h after rhamnose induction
# Method: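 In vivo DNA recorder in E. coli TOP10(DE3) ΔrhaA at 34 °C. Each TEVp single-site mutant (parent TEVp 0) is paired with a single-site variant of the 7-mer TEVs (canonical ENLYFQ|S). The substrate sits between flexible linkers in a Bxb1-sfGFP-TEVs-SsrA fusion, so cleavage stabilises Bxb1 and speeds flipping of a recombination array, read by NGS. The value is the raw area under the fraction-flipped curve over 0-4 h after rhamnose induction (AUC4h), with ≥20 reads per time point. It is not background-subtracted; inactive controls average about 0.047.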
# 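Note: Bxb1 expression induced with 0.2% (w/v) L-rhamnose at OD600 near 0.5, cultures sampled hourly, flipped fraction per protease–substrate barcode pair counted by paired-end Illumina sequencing.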
Variant,area with substrate ENAYFQS,area with substrate ENCYFQS,area with substrate ENDYFQS,area with substrate ENEYFQS,area with substrate ENFYFQS,area with substrate ENGYFQS,area with substrate ENIYFQS,area with substrate ENKYFQS,area with substrate ENMYFQS,area with substrate ENNYFQS,area with substrate ENPYFQS,area with substrate ENQYFQS,area with substrate ENRYFQS,area with substrate ENSYFQS,area with substrate ENTYFQS,area with substrate ENVYFQS,area with substrate ENYYFQS,area with substrate ENHYFQS,area with substrate ENWYFQS
G2D,0.0594,0.0542,0.0623,0.0664,0.0854,0.0732,0.0728,0.0555,0.0569,0.0671,0.0607,0.0698,0.0628,0.0499,0.0632,0.0819,0.0662,–,–
S4T,0.0455,0.0649,0.0746,0.0599,0.0604,0.0538,–,–,0.0885,0.0703,–,0.0512,0.0107,–,0.0682,–,0.0786,0.0516,–
S4W,0.0525,0.0464,0.0647,0.0675,0.0734,0.0573,0.085,0.0549,0.0694,0.0596,0.0787,0.0639,0.0596,0.0673,0.0692,0.0621,–,–,–
F6Q,0.0692,–,0.0655,–,0.0771,0.0711,0.112,–,0.0712,0.0807,0.0856,0.067,0.0593,0.0599,0.043,0.078,–,–,–
F6V,0.0588,0.0907,0.0482,–,–,0.0596,–,–,0.0845,0.0687,–,–,0.0516,–,–,–,0.0664,–,–
G8Q,0.0651,0.0367,0.0631,–,–,–,–,–,–,–,0.0601,0.0729,–,–,–,–,–,0.0633,0.0323
R10H,0.049,–,0.0549,–,0.0538,0.0497,0.0837,0.0727,0.074,–,0.0395,0.0692,0.0719,0.0587,0.0604,0.0776,–,0.0592,–
R10Q,0.0534,0.0682,0.0547,0.0605,0.0457,0.0641,0.0885,0.0647,–,0.0586,0.0544,0.0613,0.076,0.0598,0.0751,0.0855,0.058,0.0641,–
D11G,0.0667,0.0641,0.0602,0.065,0.06,0.0543,0.0991,0.0724,0.0918,0.0586,0.0545,0.0626,–,0.0572,0.0623,0.0871,0.0635,0.0581,0.0031
D11H,0.0544,0.0787,0.0602,0.0647,0.0644,0.0575,–,0.0524,–,0.0593,0.0669,0.0489,0.0567,0.0625,0.0826,0.0714,–,0.0598,–
D11N,0.0758,0.0675,0.0664,0.067,0.0613,0.0706,0.102,0.062,0.0799,0.0647,0.0612,0.0657,0.085,0.0564,0.0624,0.0814,0.0618,–,–
D11Y,0.0677,0.0772,0.0587,0.0666,0.0658,0.0628,0.0839,0.0574,–,0.05,0.0515,0.0403,0.064,0.0781,0.0569,0.0793,–,0.069,–
Y12G,0.0618,0.0663,0.0662,0.0544,0.0662,0.0609,–,0.0586,0.0822,0.0588,–,0.0591,0.0516,0.0609,0.0671,0.0728,–,0.0605,0.0368
N13Y,0.0715,0.02,0.0492,0.0579,0.065,0.0748,–,0.0532,0.0818,–,–,0.0577,0.0612,–,0.0661,0.0714,0.0614,0.0573,0.0651
P14D,0.0743,0.071,0.0739,0.065,0.0332,–,0.1,0.0692,0.0694,0.0595,–,0.0694,–,0.0655,–,0.093,0.0722,–,–
P14N,0.0664,0.0772,0.0737,–,–,0.0526,–,–,0.018,–,0.0535,0.0666,0.0681,0.0541,0.0637,0.0681,–,–,–
I15H,0.0765,–,0.0524,0.064,0.0545,–,0.155,–,0.112,0.0684,0.0671,0.0515,0.0718,0.0585,0.0744,0.0752,–,–,–
S18W,0.0526,0.0603,0.053,0.0916,0.0617,–,0.0944,–,–,0.0655,0.0445,–,0.0617,0.0646,0.0584,0.0644,–,–,–
I19M,0.0609,0.067,0.0628,0.039,0.0568,–,0.105,0.0787,–,0.0601,0.0557,0.0568,0.0687,0.0707,0.072,0.081,0.0394,0.0421,0.0546
I19N,0.0475,0.0538,0.0507,0.0558,0.0456,0.046,–,–,0.0618,–,0.0569,0.052,0.0519,0.0547,0.0464,–,0.0523,0.0572,–
C20P,0.0507,0.0246,0.0503,0.0477,0.047,0.0661,0.0572,0.0544,0.0706,0.0538,0.0527,0.0538,0.0538,0.0448,–,0.0491,–,0.0479,0.029
H21L,0.062,0.0688,0.0624,0.0633,–,0.065,0.068,0.0489,0.0495,–,0.0827,0.0537,0.0804,0.0427,0.0535,0.098,–,0.0593,–
H21R,0.0494,0.0682,0.0599,0.061,–,–,0.109,0.0571,0.069,0.0708,0.0477,0.0609,0.0639,0.0364,0.053,0.0718,0.0345,0.0568,0.0561
T23H,0.0695,0.0724,–,0.068,0.0516,0.0539,–,0.0609,0.0731,0.0371,0.0568,0.0636,0.0364,0.081,–,0.0738,0.0594,0.0551,–
